Among the data in article PMC12820563 are binding signal (RPM ratio (pull-down/input)) values, retold here.

The other results are listed elsewhere or left out. The list includes weakly bound sequences.

For the assay, the target named is T1, MBP-FoxP3dN (UniProt Q99JB6).
T1 sequence: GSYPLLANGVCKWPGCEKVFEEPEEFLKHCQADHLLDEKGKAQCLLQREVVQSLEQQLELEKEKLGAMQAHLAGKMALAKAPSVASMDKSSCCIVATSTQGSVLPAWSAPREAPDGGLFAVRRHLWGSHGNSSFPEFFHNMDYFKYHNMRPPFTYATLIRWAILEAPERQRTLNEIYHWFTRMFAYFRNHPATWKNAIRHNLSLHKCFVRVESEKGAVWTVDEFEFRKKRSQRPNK
Kind of assay: PD-seq (MBP pull-down with sequencing). The conditions noted are these: 20 mM Tris-HCl pH 7.5, 100 mM NaCl, 1.5 mM MgCl2, 0.4 uM protein, 0.1 uM dsDNA library, 30 min, room temperature, amylose pull-down; high values mean tight binding; double strand, one strand shown.
Regarding “GATGATTGTTCTCCCAGCTGATGAATTGCGTAAGTCGAGTAAACAAATTTTCCTAATCTTTCTGTTCAAGCGCCATCTAC”, the binding signal (RPM ratio (pull-down/input)) was 0.656. On to “GATGATTGTTCTCCCAGCTGATGAATTTCCGGATTCGAGTAAACAAATTTTCCTAATCTTTCTGTTCAAGCGCCATCTAC”, for which the binding signal (RPM ratio (pull-down/input)) was 0.227. With “GATGATTGTTCTCCCAGCTGATGAATTCGGGTCTTCGAGTAAACAAATTTTCCTAATCTTTCTGTTCAAGCGCCATCTAC”, the binding signal (RPM ratio (pull-down/input)) was found to be 0.583. As to “GATGATTGTTCTCCCAGCTGATGAATTCTAACGCTCGAGTAAACAAATTTTCCTAATCTTTCTGTTCAAGCGCCATCTAC”, the binding signal (RPM ratio (pull-down/input)) worked out at 0.376.

With “GATGATTGTTCTCCCAGCTGATGAATTGTCAATATCGAGTAAACAAATTTTCCTAATCTTTCTGTTCAAGCGCCATCTAC”, the binding signal (RPM ratio (pull-down/input)) came to 1.57. To “GATGATTGTTCTCCCAGCTGATGAATTAGCTTCCTCGAGTAAACAAATTTTCCTAATCTTTCTGTTCAAGCGCCATCTAC” belongs 0.864. In the case of “GATGATTGTTCTCCCAGCTGATGAATTATCACTTTCGAGTAAACAAATTTTCCTAATCTTTCTGTTCAAGCGCCATCTAC”, the binding signal (RPM ratio (pull-down/input)) is 0.47. In the case of “GATGATTGTTCTCCCAGCTGATGAATTTATCTAGTCGAGTAAACAAATTTTCCTAATCTTTCTGTTCAAGCGCCATCTAC”, the binding signal (RPM ratio (pull-down/input)) was 0.605. Consider “GATGATTGTTCTCCCAGCTGATGAATTATCTACTTCGAGTAAACAAATTTTCCTAATCTTTCTGTTCAAGCGCCATCTAC”, for which the binding signal (RPM ratio (pull-down/input)) was determined as 0.366. For the sequence “GATGATTGTTCTCCCAGCTGATGAATTACATATTTCGAGTAAACAAATTTTCCTAATCTTTCTGTTCAAGCGCCATCTAC”, the binding signal (RPM ratio (pull-down/input)) was found to be 0.642. The same measure for “GATGATTGTTCTCCCAGCTGATGAATTATAAATTTCGAGTAAACAAATTTTCCTAATCTTTCTGTTCAAGCGCCATCTAC”: 0.351; for “GATGATTGTTCTCCCAGCTGATGAATTTCAACTGTCGAGTAAACAAATTTTCCTAATCTTTCTGTTCAAGCGCCATCTAC”: 0.377. Consider “GATGATTGTTCTCCCAGCTGATGAATTGCGCAATTCGAGTAAACAAATTTTCCTAATCTTTCTGTTCAAGCGCCATCTAC”, for which the binding signal (RPM ratio (pull-down/input)) was 5.72. The same measure for “GATGATTGTTCTCCCAGCTGATGAATTTTTTCAATCGAGTAAACAAATTTTCCTAATCTTTCTGTTCAAGCGCCATCTAC”: 0.247. The same measure for “GATGATTGTTCTCCCAGCTGATGAATTGAAGATGTCGAGTAAACAAATTTTCCTAATCTTTCTGTTCAAGCGCCATCTAC”: 0.334; for “GATGATTGTTCTCCCAGCTGATGAATTAAGATCTTCGAGTAAACAAATTTTCCTAATCTTTCTGTTCAAGCGCCATCTAC”: 0.292; for “GATGATTGTTCTCCCAGCTGATGAATTCATGCGTTCGAGTAAACAAATTTTCCTAATCTTTCTGTTCAAGCGCCATCTAC”: 1.68. For the sequence “GATGATTGTTCTCCCAGCTGATGAATTGCTACCGTCGAGTAAACAAATTTTCCTAATCTTTCTGTTCAAGCGCCATCTAC”, the binding signal (RPM ratio (pull-down/input)) worked out at 0.615. For the sequence “GATGATTGTTCTCCCAGCTGATGAATTATGGCTTTCGAGTAAACAAATTTTCCTAATCTTTCTGTTCAAGCGCCATCTAC”, the binding signal (RPM ratio (pull-down/input)) turned out to be 1.21. Regarding “GATGATTGTTCTCCCAGCTGATGAATTTTACTCATCGAGTAAACAAATTTTCCTAATCTTTCTGTTCAAGCGCCATCTAC”, the binding signal (RPM ratio (pull-down/input)) came to 0.402. For the sequence “GATGATTGTTCTCCCAGCTGATGAATTCGTTCACTCGAGTAAACAAATTTTCCTAATCTTTCTGTTCAAGCGCCATCTAC”, the binding signal (RPM ratio (pull-down/input)) came to 0.463. Take “GATGATTGTTCTCCCAGCTGATGAATTAATATGCTCGAGTAAACAAATTTTCCTAATCTTTCTGTTCAAGCGCCATCTAC”: the binding signal (RPM ratio (pull-down/input)) was 1.06. The same measure for “GATGATTGTTCTCCCAGCTGATGAATTAAGCCCATCGAGTAAACAAATTTTCCTAATCTTTCTGTTCAAGCGCCATCTAC”: 1.01. To “GATGATTGTTCTCCCAGCTGATGAATTACCCACCTCGAGTAAACAAATTTTCCTAATCTTTCTGTTCAAGCGCCATCTAC” belongs 0.278. As to “GATGATTGTTCTCCCAGCTGATGAATTCGTGACGTCGAGTAAACAAATTTTCCTAATCTTTCTGTTCAAGCGCCATCTAC”, the binding signal (RPM ratio (pull-down/input)) was 0.455. On to “GATGATTGTTCTCCCAGCTGATGAATTGGTCGTGTCGAGTAAACAAATTTTCCTAATCTTTCTGTTCAAGCGCCATCTAC”, for which the binding signal (RPM ratio (pull-down/input)) was 0.88. To “GATGATTGTTCTCCCAGCTGATGAATTTTTTCCATCGAGTAAACAAATTTTCCTAATCTTTCTGTTCAAGCGCCATCTAC” belongs 0.239. Regarding “GATGATTGTTCTCCCAGCTGATGAATTTGTACTTTCGAGTAAACAAATTTTCCTAATCTTTCTGTTCAAGCGCCATCTAC”, the binding signal (RPM ratio (pull-down/input)) was 1.75. With “GATGATTGTTCTCCCAGCTGATGAATTCATTATGTCGAGTAAACAAATTTTCCTAATCTTTCTGTTCAAGCGCCATCTAC”, the binding signal (RPM ratio (pull-down/input)) was determined as 1.36. Regarding “GATGATTGTTCTCCCAGCTGATGAATTGGGTCTTTCGAGTAAACAAATTTTCCTAATCTTTCTGTTCAAGCGCCATCTAC”, the binding signal (RPM ratio (pull-down/input)) came out at 0.418.

In the case of “GATGATTGTTCTCCCAGCTGATGAATTGGGACAGTCGAGTAAACAAATTTTCCTAATCTTTCTGTTCAAGCGCCATCTAC”, the binding signal (RPM ratio (pull-down/input)) was 0.363. The same measure for “GATGATTGTTCTCCCAGCTGATGAATTATCTCTCTCGAGTAAACAAATTTTCCTAATCTTTCTGTTCAAGCGCCATCTAC”: 0.321.
